# Test results as given in the supplement of paper PMC12217912.
# Some of the results follow. The full chains were built here from the parent and the listed change. Values near 0.05 are background.
# B1: TEV protease; numbered along this chain (parent)
# chain: MGESLFKGPRDYNPISSSICHLTNESDGHTTSLYGIGFGPFIITNKHLFRRNNGTLVVQSLHGVFKVKDTTTLQQHLVDGRDMIIIRMPKDFPPFPQKLKFREPQREERICLVTTNFQTKSMSSMVSDTSCTFPSGDGIFWKHWIQTKDGQCGSPLVSTRDGFIVGIHSASNFTNTNNYFTSVPKNFMELLTNQEAQQWVSGWRLNADSVLWGGHKVFMVKPEEPFQPVKEATQL
# Variants of: B1
# Experiment: raw area under fraction-flipped curve 0-4 h after induction (AUC4h, not background-subtracted), DNA-recorder readout of cleavage of the substrate (dimensionless); higher = more cleavage of the substrate by the protease variant
# Details: temperature: 34 °C; time window: 0-4 h after rhamnose induction
# Experimental: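 In vivo DNA recorder in E. coli TOP10(DE3) ΔrhaA at 34 °C. Each TEVp single-site mutant (parent TEVp 0) is paired with a single-site variant of the 7-mer TEVs (canonical ENLYFQ|S). The substrate sits between flexible linkers in a Bxb1-sfGFP-TEVs-SsrA fusion, so cleavage stabilises Bxb1 and speeds flipping of a recombination array, read by NGS. The value is the raw area under the fraction-flipped curve over 0-4 h after rhamnose induction (AUC4h), with ≥20 reads per time point. It is not background-subtracted; inactive controls average about 0.047.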
# 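Further: Bxb1 expression induced with 0.2% (w/v) L-rhamnose at OD600 near 0.5, cultures sampled hourly, flipped fraction per protease–substrate barcode pair counted by paired-end Illumina sequencing.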
Variant,area with substrate ENAYFQS,area with substrate ENDYFQS,area with substrate ENEYFQS,area with substrate ENFYFQS,area with substrate ENGYFQS,area with substrate ENHYFQS,area with substrate ENIYFQS,area with substrate ENMYFQS,area with substrate ENNYFQS,area with substrate ENPYFQS,area with substrate ENQYFQS,area with substrate ENRYFQS,area with substrate ENSYFQS,area with substrate ENTYFQS,area with substrate ENVYFQS,area with substrate ENCYFQS,area with substrate ENKYFQS,area with substrate ENWYFQS,area with substrate ENYYFQS
MGFSLFKGPRDYNPISSSICHLTNESDGHTTSLYGIGFGPFIITNKHLFRRNNGTLVVQSLHGVFKVKDTTTLQQHLVDGRDMIIIRMPKDFPPFPQKLKFREPQREERICLVTTNFQTKSMSSMVSDTSCTFPSGDGIFWKHWIQTKDGQCGSPLVSTRDGFIVGIHSASNFTNTNNYFTSVPKNFMELLTNQEAQQWVSGWRLNADSVLWGGHKVFMVKPEEPFQPVKEATQL [E3F],0.0605,0.0578,0.0713,0.0773,0.0476,0.0562,0.147,0.0966,0.0546,0.0776,0.0682,0.0525,0.068,0.106,0.101,–,–,–,–
MGEILFKGPRDYNPISSSICHLTNESDGHTTSLYGIGFGPFIITNKHLFRRNNGTLVVQSLHGVFKVKDTTTLQQHLVDGRDMIIIRMPKDFPPFPQKLKFREPQREERICLVTTNFQTKSMSSMVSDTSCTFPSGDGIFWKHWIQTKDGQCGSPLVSTRDGFIVGIHSASNFTNTNNYFTSVPKNFMELLTNQEAQQWVSGWRLNADSVLWGGHKVFMVKPEEPFQPVKEATQL [S4I],0.0596,0.0627,0.0678,0.0566,0.0265,0.0566,–,0.0736,0.0613,–,0.0564,–,–,0.0567,–,0.0733,0.0683,0.0358,0.0684
MGESPFKGPRDYNPISSSICHLTNESDGHTTSLYGIGFGPFIITNKHLFRRNNGTLVVQSLHGVFKVKDTTTLQQHLVDGRDMIIIRMPKDFPPFPQKLKFREPQREERICLVTTNFQTKSMSSMVSDTSCTFPSGDGIFWKHWIQTKDGQCGSPLVSTRDGFIVGIHSASNFTNTNNYFTSVPKNFMELLTNQEAQQWVSGWRLNADSVLWGGHKVFMVKPEEPFQPVKEATQL [L5P],0.062,0.0644,–,–,–,–,0.0501,–,–,0.0496,0.0616,–,–,–,–,–,–,–,–
MGESLFKGCRDYNPISSSICHLTNESDGHTTSLYGIGFGPFIITNKHLFRRNNGTLVVQSLHGVFKVKDTTTLQQHLVDGRDMIIIRMPKDFPPFPQKLKFREPQREERICLVTTNFQTKSMSSMVSDTSCTFPSGDGIFWKHWIQTKDGQCGSPLVSTRDGFIVGIHSASNFTNTNNYFTSVPKNFMELLTNQEAQQWVSGWRLNADSVLWGGHKVFMVKPEEPFQPVKEATQL [P9C],0.0521,0.06,–,0.0695,0.0439,0.0568,0.113,0.0781,0.0579,0.0624,0.058,0.0609,0.0486,–,0.0876,0.0618,0.0451,0.0692,–
MGESLFKGRRDYNPISSSICHLTNESDGHTTSLYGIGFGPFIITNKHLFRRNNGTLVVQSLHGVFKVKDTTTLQQHLVDGRDMIIIRMPKDFPPFPQKLKFREPQREERICLVTTNFQTKSMSSMVSDTSCTFPSGDGIFWKHWIQTKDGQCGSPLVSTRDGFIVGIHSASNFTNTNNYFTSVPKNFMELLTNQEAQQWVSGWRLNADSVLWGGHKVFMVKPEEPFQPVKEATQL [P9R],0.068,0.0561,0.0547,0.0577,0.066,–,0.124,–,–,0.0442,0.0506,0.0524,0.0518,0.0481,0.101,0.0801,–,0.0489,–
